# Laboratory results taken from the supplement of paper PMC3334620.
# The full ranking holds about 33,000 sequences; the median of “E-score (-0.5 to 0.5)” is about -0.04, and the highest 2% start at about 0.36. This is one part of the list.
# Molecular target: T1, Hmlalpha2 (UniProt P0CY09)
# T1 sequence: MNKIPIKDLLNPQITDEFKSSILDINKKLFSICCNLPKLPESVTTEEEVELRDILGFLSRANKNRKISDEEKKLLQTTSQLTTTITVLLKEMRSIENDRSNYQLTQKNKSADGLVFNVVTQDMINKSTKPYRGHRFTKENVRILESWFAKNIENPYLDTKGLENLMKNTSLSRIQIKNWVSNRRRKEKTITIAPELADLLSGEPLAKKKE
# Test: PBM E-score (8-mer binding enrichment) (E-score (-0.5 to 0.5)); higher = stronger / more preferred TF binding; most listed sequences are background and not binding sites
# Details: protein concentration: 200 nM; construct: GST-full length
# Procedure, shortened: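 Universal all-10-mer Agilent arrays, fresh or stripped once, were converted to double-stranded form by primer extension. GST-tagged yeast transcription factors from PURExpress in vitro transcription/translation, full-length or DNA-binding domain only, were applied at about 100-200 nM and detected with fluorescent anti-GST. After masliner normalisation, the Universal PBM Analysis Suite scored each ungapped eight-base word together with its reverse complement by E-score.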
row,Sequence,PBM E-score
1,CCTAAATA,0.0479
2,ACTCAACG,0.137
3,ATAGGTGG,-0.089
4,ACGGCGCT,-0.145
5,ACTTAAGG,-0.0952
6,ATTGACCC,-0.151
7,GTACGCCA,-0.124
8,ACTAAACG,0.209
9,CTGACTAC,0.1
10,GAGAGCTA,-0.0115
11,AACGACGA,0.00043
12,ACCGTACA,0.133
13,GAAGATGA,-0.0889
14,GGAAAGCC,-0.165
15,ATGAATGA,0.0669
16,CCCATGAG,-0.358
17,GTCCCTTA,-0.127
18,TGGTGCAA,-0.171
19,ATTGGCCA,0.0475
20,GGAGTATA,-0.109
21,AACGCGGC,0.127
22,CCGGACAA,0.0112
23,TCCGGCGA,-0.158
24,GACCTCCA,-0.0969
25,GTGATCGA,0.137

row,Sequence,PBM E-score
1,CGGTCTTC,-0.19
2,TAGCGGCA,-0.0566
3,GGGAGGAA,-0.191
4,GAAGTGGA,-0.103
5,AAACCAGC,-0.0019
6,CGATTCCG,-0.248
7,CTCGTAGA,-0.0578
8,AGCTTACA,0.3
9,AAACTATC,-0.00765
10,GGCCAATA,-0.0158
11,CTGGGTGC,-0.351
12,ACATCATC,0.105
13,ACCGGCGA,-0.291
14,TACTGACA,0.166
15,CATATAGG,-0.067
16,ATAAGCAC,0.156
17,CTCTATAA,0.0559
18,ACTGTGAT,-0.127
19,GGGGGCGA,-0.352
20,AGTCTCAC,-0.207
21,CATGAACG,-0.00018
22,CTGCGTAC,0.186
23,CTGGCACC,-0.331
24,CAGCCACA,-0.111
25,AATCGATT,0.145

row,Sequence,PBM E-score
1,CCCAAGCC,-0.214
2,CCAGATGA,-0.12
3,TAGGTCCA,0.124
4,ATTATCAC,0.243
5,TATCTTAA,0.159
6,AATACGTA,0.317
7,CAACGGTA,-0.207
8,ATAAGGAC,-0.0325
9,ACACGTGC,0.331
10,CACAGCAG,0.0881
11,ACGGGAGC,-0.0847
12,TATCGTAA,0.263
13,ACCGCGTC,0.113
14,AAAAGCAG,-0.156
15,GGTGATAC,-0.262
16,ATTAGCAA,0.213
17,ACCGCCGC,-0.0583
18,AAAGGTTA,-0.0358
19,AGGCCCAT,-0.267
20,GAGGCCCC,-0.353
21,CTAACCTC,-0.0647
22,TCTATAGA,-0.124
23,GCGCCCAA,-0.161
24,AAAGGAAC,0.134
25,CCGAGAGC,-0.296

row,Sequence,PBM E-score
1,GCATGGCA,0.013
2,CACCGCAC,-0.219
3,GCGAAACC,0.104
4,CAGCTTGG,-0.199
5,ACGGGTAA,0.128
6,CAACTTTA,0.198
7,GAAACGGC,-0.0848
8,CCAAGCAC,0.0204
9,GCCCGAGA,-0.0895
10,ATATACAA,0.343
11,GATCACAA,0.0153
12,TATCAAAA,0.173
13,CTCGTCAC,-0.0377
14,ACTACATC,0.275
15,GCTAAGCA,-0.107
16,GTAAGATA,0.152
17,ACCCTGGC,-0.248
18,CGTTGTAA,0.368
19,CACATTGA,0.097
20,AACGTAGT,0.218
21,ATATGGTA,-0.0997
22,GGACGAAC,0.186
23,AAATAATG,0.214
24,CCGAATAC,0.229
25,CTCACGAG,-0.271

row,Sequence,PBM E-score
1,CTCAATTC,-0.0489
2,AGAGGTTC,-0.126
3,ATCATGCA,-0.0495
4,GGTGTTAA,0.361
5,GCCGGTCA,-0.234
6,CGAGTTAC,0.221
7,ACCATTGC,-0.0219
8,GCGAAACA,0.133
9,GTGGGGAA,0.0486
10,GGCCTGTA,0.0301
11,CCTCTTGA,-0.157
12,CTGCGCAC,-0.0954
13,AAGGCCAT,-0.134
14,GTGTGTAA,0.465
15,ACGATCGT,0.16
16,AGAACCAC,-0.188
17,GACTTTCA,-0.214
18,GACAACCC,-0.0305
19,ATACACGG,0.445
20,AGCGGATG,-0.0721
21,CTGTCCGC,-0.188
22,TGATAGCA,0.0912
23,ATGTAAAT,0.477
24,AAATGATA,0.237
25,GCACAAGC,-0.00899

row,Sequence,PBM E-score
1,AGGGGCCC,-0.228
2,CTAATTAG,0.00067
3,CGGCACTC,-0.213
4,ATTCAGAA,-0.017
5,AGAGCTAC,0.0202
6,CCGAAGGA,-0.149
7,CACGATCC,0.199
8,CGGTGCAC,-0.188
9,CTATAGCC,-0.444
10,ACTATTCA,0.0524
11,AAGCGCTT,0.0755
12,CATGGCCC,-0.133
13,ATCCGGTG,0.169
14,CCGAGACA,-0.133
15,CCGTATAC,0.0388
16,TCCGTTAA,0.0489
17,GGGACAAA,-0.107
18,CTCCAGAC,-0.181
19,CGGTTCCC,-0.17
20,CAACCGCC,-0.0495
21,TAGGTTAA,0.245
22,CTTATGTC,0.117
23,TATGTGAA,0.294
24,GCCTAACC,-0.105
25,CAAAGTCC,-0.191

row,Sequence,PBM E-score
1,TAGAGTAA,0.132
2,AAGGTTCG,-0.0772
3,AGATCAAG,0.137
4,GTTGGCAA,0.167
5,CCGTGTCC,0.0408
6,ACGTATCA,0.193
7,CCAGGTAA,0.229
8,AACTAATA,0.283
9,CCCCTTCG,-0.228
10,CAGCGCCG,-0.246
11,GCACATAA,0.12
12,AACCTGCC,-0.0615
13,CCAGGTAC,-0.122
14,CAGCAGAC,0.0511
15,CGGAGAAA,-0.155
16,CGAGTAGA,-0.104
17,ACTTGATG,0.203
18,ACAAAATC,0.0251
19,GGGAATCA,-0.156
20,CAAAGCCG,-0.0798
21,AAGGGACG,-0.155
22,ACAAAAGT,0.187
